Data on 6 molecules can be found in publication PMC12136788.

The list shows a part of the results.

B1: chr14:100883672:100883793:-|CDS|ENSG00000254656|unk|total|mutant (ssRNA)
RNA: GGGAGUUCUACAGUCCGACGAUCUCUAUUCCGGGUCCCUCAGCCGGAUUCCCCCGACAGUCUGAUUGUGCUCAUCCUGCAAACCGAAGAGAAGCUGGCAGAGAGAAGAGCUAUGCUCAGGCUGCCCCCCGAGGCCCGCCCCCGCAACAGAGGAUUGAGCAUCA
B2: ENSG00000070961:be:win_4101|3pUTR|ENSG00000070961|bound_else_gene|NA|bound_elsewhere_windowed (ssRNA)
RNA: GGGAGUUCUACAGUCCGACGAUCUACAGAUCUGUUUACAAGGUUUGUAGAUACUUUUUUUGUUCCUGUUCAUAGAUGGGAAGCUUCCUUAUAACUGAUGCAGAGAAAAAUUAGUCCUUCAAAUACUGCUGUAUUUUCAGGAAACAACAGAGGAUUGAGCAUCA
B3: chr2:210678210:210678332:+|3pUTR|ENSG00000021826|unk|total|mutant (ssRNA)
RNA: GGGAGUUCUACAGUCCGACGAUCUUCAUCCAUUUACUAAUACUGUAUUUUUGGUGGACCCGGCUUGCCUAUGUGCUUAUGUGCCGCUUUUUACUUUUUAUGGUGCUGAUUAAUGGUGAUCAAGGCCGGAAAAGUUGCUGUUCUCAACAGAGGAUUGAGCAUCA
B4: chr9:116187394:116187495:+|CDS|ENSG00000182752|msi1|total|mutant (ssRNA)
RNA: GGGAGUUCUACAGUCCGACGAUCUGGGGAACAAGUGGGUGGCAUAUUCAGCCCACUGACCCAGAAGUGCAAAGUGCUCAUGUCCGGGGGCAGUGCCCUGAAUCACAACUACCGGGGCUACAUCGAGCACUUCAGUCUGUGGAACAACAGAGGAUUGAGCAUCA
B5: ENSG00000070961:be:win_2401|CDS|ENSG00000070961|bound_else_gene|NA|bound_elsewhere_windowed (ssRNA)
RNA: GGGAGUUCUACAGUCCGACGAUCGAUGGCCCAGCACUAAAGAAAGCAGAUGUUGGAUUUGCAAUGGGUAUUGCUGGAACUGAUGUAGCUAAAGAAGCAUCCGAUAUUAUUCUCACAGAUGACAACUUUACAAGCAUUGUUAAACAACAGAGGAUUGAGCAUCA
B6: chr1:169124931:169125019:+|5pUTR_CDS|ENSG00000143153|msi1_unk|FALSE|overlapping (ssRNA)
RNA: GGGAGUUCUACAGUCCGACGAUCGAAAUUUCCUUUCGUCCUAAUGAUCCCAAGAGCUAUGAGGCAUAUGUACUGAACAUAGUUAGGUUCCUGGAAAAGUACAAAGAUUCAGCCCAGAGGGAUGACAUGAUUUUUGAAGAUUGUCAACAGAGGAUUGAGCAUCA

The test concerns the target T1, UNK ZnF1-6 (called full-length) (human, UniProt Q9C0B0 30-357).
T1 sequence: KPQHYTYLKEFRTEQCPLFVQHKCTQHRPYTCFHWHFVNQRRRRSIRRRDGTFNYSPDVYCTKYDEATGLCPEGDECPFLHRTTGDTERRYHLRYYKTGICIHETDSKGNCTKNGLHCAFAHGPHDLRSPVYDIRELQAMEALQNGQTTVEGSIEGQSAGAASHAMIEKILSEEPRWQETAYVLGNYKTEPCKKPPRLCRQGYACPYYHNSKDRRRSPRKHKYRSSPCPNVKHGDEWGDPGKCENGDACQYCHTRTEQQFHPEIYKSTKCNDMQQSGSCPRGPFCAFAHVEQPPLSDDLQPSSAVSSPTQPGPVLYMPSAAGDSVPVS
Put plainly: nsRBNS (natural sequence RNA bind-n-seq); RBNS binding buffer (assumed for nsRBNS): 25 mM Tris pH 7.5, 150 mM KCl, 3 mM MgCl2, 0.01% Triton X-100, 500 ug/ml BSA, 20 U/ml SUPERase-In, 4 C; UNK is unkempt and MSI1 is Musashi-1; names of the RNAs are library labels; protein concentration not given here; high values mean tight binding.
With B1, the binding signal amounted to 0.755 enrichment R.
Next, B2: 0.517 enrichment R; B3: 0.353 enrichment R.
Take B4: the binding signal is 0.573 enrichment R.
To B5 belongs 0.531 enrichment R.
In turn, B6 came in with a binding signal of 0.437 enrichment R.
